The test system of test [1] is CD47 deficient (CD47 KO) Jurkat T cells.
Test [2] has as its system WT Jurkat cells.
[3] abbreviates: CD47 KO Jurkat T cells, 48 hours, 10^-9 to 10^-4 M, CellTiter-Glo.
The mark [4] stands for this setting: difference CD47 KO minus WT Jurkat cells, 48 hours.
The mark [5] stands for this setting: WT Jurkat cells, 48 hours, 10^-9 to 10^-4 M, CellTiter-Glo.

Structures can show the parent of a compound that is named as a salt. Where two headings read alike, the source gives them in different places.

`O=C1NCCc2[nH]c(-c3ccncc3)cc21` [PHA-767491A]: the “Maximal Response CD47 KO (RLU)” value in test [1] (setting [3]) is given as 50.652 RLU. Also, the “Δ Maximal Response CD47KO-WT” value in test [1] (setting [4]) is recorded as 46.835. Besides, in test [2] (setting [5]), the “Maximal Response WT (RLU)” value stood at 3.817 RLU.

As for `CC(CCc1ccc(O)cc1)NCCc1ccc(O)c(O)c1` (stereo not drawn) [Dobutamine hydrochloride], in test [1] (setting [3]), the “Maximal Response CD47 KO (RLU)” value was 40.55 RLU. Moreover, the “Maximal Response WT (RLU)” value in test [2] (setting [5]) amounted to 8.698 RLU.

Regarding `COc1ccc(-c2ccc3cc(C(=O)O)ccc3c2)cc1C12CC3CC(CC(C3)C1)C2` [Adapalene], the “Maximal Response CD47 KO (RLU)” value in test [1] (setting [3]) was found to be 48.053 RLU. The “Maximal Response WT (RLU)” value in test [2] (setting [5]) is given as 20.674 RLU.

For the molecule `CC(C)CC(=O)Nc1[nH]nc2c1CN(C(=O)C1CCN(C)CC1)C2(C)C` [PHA-793887], in test [1] (setting [3]), the “Maximal Response CD47 KO (RLU)” value is recorded as 33.85 RLU. The “Maximal Response WT (RLU)” value in test [2] (setting [5]) was 1.453 RLU.

As for `CC(C)c1ccccc1Cc1cc(C(=O)Nc2ccc(S(=O)(=O)c3ccccc3C(C)(C)C)cc2)c(O)c(O)c1O` [TW-37], the “Maximal Response CD47 KO (RLU)” value in test [1] (setting [3]) was determined as 34.779 RLU. The “Δ Maximal Response CD47KO-WT” value in test [1] (setting [4]) stood at 21.34. Besides, the “Maximal Response WT (RLU)” value in test [2] (setting [5]) is 13.439 RLU.

On to `CN(c1nccc(=O)[nH]1)C1CCN(c2nc3ccccc3n2Cc2ccc(F)cc2)CC1` [Mizolastine], for which the “Maximal Response CD47 KO (RLU)” value in test [1] (setting [3]) stood at 89.324 RLU. The “Maximal Response WT (RLU)” value in test [2] (setting [5]) stood at 60.168 RLU.

`COc1ccc(C2=N[C@@H](c3ccc(Cl)cc3)[C@@H](c3ccc(Cl)cc3)N2C(=O)N2CCNC(=O)C2)c(OC(C)C)c1` [Nutlin-3]: in test [1], the “Maximal Response CD47 KO (RLU)” value is reported as 49.966 RLU and the “Δ Maximal Response CD47KO-WT” value was found to be 42.145. Moreover, in test [2], the “Maximal Response WT (RLU)” value came out at 7.821 RLU.

In the case of `COc1ccc2c(c1)c(CC(=O)OCC(=O)O)c(C)n2C(=O)c1ccc(Cl)cc1` [Acemetacin], the “Maximal Response CD47 KO (RLU)” value in test [1] (setting [3]) is 130.505 RLU. Besides, the “Maximal Response WT (RLU)” value in test [2] (setting [5]) is 103.666 RLU.

As for `CN(C)c1ccc(O)c2c1C[C@H]1C[C@H]3[C@H](N(C)C)C(O)=C(C(N)=O)C(=O)[C@@]3(O)C(O)=C1C2=O` [Minocycline], the “Maximal Response CD47 KO (RLU)” value in test [1] (setting [3]) stood at 52.108 RLU. Moreover, in test [2] (setting [5]), the “Maximal Response WT (RLU)” value is given as 7.169 RLU.

Take `Cc1cc(NC(=O)Nc2ccc(N(C)C)cc2)c2cc(F)cc(F)c2n1` [SB-408124]: in test [1] (setting [3]), the “Maximal Response CD47 KO (RLU)” value was found to be 50.614 RLU. The “Δ Maximal Response CD47KO-WT” value in test [1] (setting [4]) was found to be 27.547. Besides, the “Maximal Response WT (RLU)” value in test [2] (setting [5]) worked out at 23.067 RLU.

Consider `CC(C)(C)c1cc(C=C(C#N)C#N)cc(Br)c1O` [AG-1024], for which the “Maximal Response CD47 KO (RLU)” value in test [1] (setting [3]) was 55.705 RLU. The “Δ Maximal Response CD47KO-WT” value in test [1] (setting [4]) was 34.12. In addition, in test [2] (setting [5]), the “Maximal Response WT (RLU)” value came to 21.585 RLU.

Turning to `Nc1nc(F)nc2c1ncn2[C@@H]1O[C@H](COP(=O)(O)O)[C@@H](O)[C@@H]1O` [Fludarabine phosphate], the “Maximal Response CD47 KO (RLU)” value in test [1] was determined as 46.884 RLU. In addition, in test [2], the “Maximal Response WT (RLU)” value is recorded as 12.348 RLU.

For the molecule `CCCCC(C)(C)[C@H](O)/C=C/[C@H]1[C@H](O)CC(=O)[C@@H]1C/C=C\CCCC(=O)O` [16,16-dimethyl PGE2], in test [1], the “Maximal Response CD47 KO (RLU)” value is 73.807 RLU and the “Δ Maximal Response CD47KO-WT” value came to 41.963. In addition, the “Maximal Response WT (RLU)” value in test [2] stood at 31.844 RLU.

For `COc1cc([C@@H]2c3cc4c(cc3[C@H](O)[C@H]3COC(=O)[C@@H]23)OCO4)cc(OC)c1OC` [Picropodophyllin], the “Maximal Response CD47 KO (RLU)” value in test [1] (setting [3]) was found to be 37.377 RLU. In test [2] (setting [5]), the “Maximal Response WT (RLU)” value is listed as 12.497 RLU.

A word on the AC50: it is the midpoint of the concentration-response curve, whichever way the signal moves. As for `C[C@H](NCc1ccc2c(c1)nc(NC(=O)c1ccc(-c3cn[nH]c3)s1)n2CCc1ccccc1)C(C)(C)C` [NCGC00344999-01], the “Δ LogAC50 CD47KO-WT” value in test [1] (log AC50 difference CD47 KO minus WT) amounted to 1.3. Also, the AC50 is 2.64 µM in test [1] (read-out: AC50 (μM) CD47 KO, CD47 KO Jurkat T cells, cell viability, 48 hours) and 0.132 µM in test [2] (read-out: AC50 (μM) WT, WT Jurkat cells, cell viability, 48 hours).

On to `CS(=O)(=O)Oc1ccc2c(NC(N)=O)c(C(=O)c3ccc(Cl)cc3Cl)oc2c1` [Lirimilast], for which, in test [1] (setting [3]), the “Maximal Response CD47 KO (RLU)” value was found to be 87.201 RLU. The “Maximal Response WT (RLU)” value in test [2] (setting [5]) was 61.864 RLU.

Take `COc1ccc(S(=O)(=O)Nc2cccnc2Nc2ccc(O)cc2)cc1` [E-7010]: the “Maximal Response CD47 KO (RLU)” value in test [1] (setting [3]) is given as 44.092 RLU. The “Maximal Response WT (RLU)” value in test [2] (setting [5]) is reported as 10.419 RLU.

On to `CCCCc1ncc(/C=C(\Cc2cccs2)C(=O)O)n1Cc1ccc(C(=O)O)cc1` [Eprosartan mesylate], for which, in test [1] (setting [3]), the “Maximal Response CD47 KO (RLU)” value came out at 90.261 RLU. Further, the “Maximal Response WT (RLU)” value in test [2] (setting [5]) stood at 63.38 RLU.

Take `CN(C)CCCNC(=O)c1ccc(-c2cc(O)c3ncccc3c2)cc1` [NCGC00183808-01]: the “Maximal Response CD47 KO (RLU)” value in test [1] (setting [3]) stood at 74.518 RLU. For the same molecule, the “Δ Maximal Response CD47KO-WT” value in test [1] (setting [4]) amounted to 38.952. Besides, the “Maximal Response WT (RLU)” value in test [2] (setting [5]) was 35.566 RLU.

`O=C(c1cc(Cc2n[nH]c(=O)c3ccccc23)ccc1F)N1CCN(C(=O)C2CC2)CC1` [Olaparib]: the “Maximal Response CD47 KO (RLU)” value in test [1] (setting [3]) was 90.538 RLU. Also, the “Maximal Response WT (RLU)” value in test [2] (setting [5]) turned out to be 63.542 RLU.

Take `CCOC(CN1C(=O)[C@](CC(=O)Nc2ccc(C)cc2)(NC(=O)Nc2ccc(C)cc2)c2ccccc21)OCC` [AG-041R]: the “Maximal Response CD47 KO (RLU)” value in test [1] (setting [3]) is reported as 52.368 RLU. Moreover, the “Δ Maximal Response CD47KO-WT” value in test [1] (setting [4]) came out at 42.629. In addition, the “Maximal Response WT (RLU)” value in test [2] (setting [5]) is given as 9.739 RLU.

In the case of `C[C@H](NC(=O)C(=O)Nc1ccccc1C(C)(C)C)C(=O)N[C@@H](CC(=O)O)C(=O)COc1c(F)c(F)cc(F)c1F` [Emricasan], the “Maximal Response CD47 KO (RLU)” value in test [1] was determined as 69.759 RLU. In test [2], the “Maximal Response WT (RLU)” value is recorded as 26.974 RLU.

Turning to Antimycin A, in test [1] (setting [3]), the “Maximal Response CD47 KO (RLU)” value is on record as 46.04 RLU. Further, in test [1] (setting [4]), the “Δ Maximal Response CD47KO-WT” value is 21.63. In test [2] (setting [5]), the “Maximal Response WT (RLU)” value is given as 24.41 RLU.

Take `CC1(C)CNc2cc(NC(=O)c3cccnc3NCc3ccncc3)ccc21` [Motesanib]: the “Maximal Response CD47 KO (RLU)” value in test [1] (setting [3]) was 68.692 RLU. Moreover, the “Maximal Response WT (RLU)” value in test [2] (setting [5]) stood at 21.286 RLU.

On to `C=C1C[C@@H]2[C@H](CC[C@]3(C)C(=O)CC[C@@H]23)[C@@]2(C)C=CC(=O)C=C12` [Exemestane], for which, in test [1] (48 h), the “Maximal Response CD47 KO (RLU)” value worked out at 77.388 RLU and the “Δ Maximal Response CD47KO-WT” value is reported as 28.566. The “Maximal Response WT (RLU)” value in test [2] (48 h) was found to be 48.822 RLU.

Consider `CC(C)c1c(C(=O)Nc2ccccc2)c(-c2ccccc2)c(-c2ccc(F)cc2)n1CC[C@@H](O)C[C@@H](O)CC(=O)[O-].CC(C)c1c(C(=O)Nc2ccccc2)c(-c2ccccc2)c(-c2ccc(F)cc2)n1CC[C@@H](O)C[C@@H](O)CC(=O)[O-].[Ca+2]` [Atorvastatin calcium], for which the “Maximal Response CD47 KO (RLU)” value in test [1] (setting [3]) came out at 57.007 RLU. For the same molecule, in test [1] (setting [4]), the “Δ Maximal Response CD47KO-WT” value was found to be 22.018. Moreover, in test [2] (setting [5]), the “Maximal Response WT (RLU)” value came out at 34.989 RLU.

On to `Cc1c(C)n(Cc2ccc(-c3ccccc3C(=O)O)cc2)c2ccc(C(=O)N[C@@H](C)c3ccc([N+](=O)[O-])cc3)cc12` [SR1664], for which the “Maximal Response CD47 KO (RLU)” value in test [1] (setting [3]) is on record as 67.276 RLU. In addition, the “Δ Maximal Response CD47KO-WT” value in test [1] (setting [4]) is given as 42.247. For the same molecule, in test [2] (setting [5]), the “Maximal Response WT (RLU)” value amounted to 25.029 RLU.

On to `O=C(O)CCCc1ccc(N(CCCl)CCCl)cc1` [Chlorambucil], for which the “Maximal Response CD47 KO (RLU)” value in test [1] is reported as 92.524 RLU. The “sensitivity of CD47-expressing versus deficient Jurkat T cells” value in test [1] (48 hours) is “differing sensitivities”. Further, the “Maximal Response WT (RLU)” value in test [2] is listed as 16.98 RLU.

`CC(C)NCC(O)c1ccc(O)c(O)c1` (stereo not drawn) [Isoprenaline hydrochloride]: the “Maximal Response CD47 KO (RLU)” value in test [1] (setting [3]) was found to be 53.781 RLU. For the same molecule, the “Maximal Response WT (RLU)” value in test [2] (setting [5]) stood at 7.997 RLU.
